Assay results reported in the supplement of paper PMC3334620.
In all, about 33,000 sequences were measured (“E-score (-0.5 to 0.5)”: median about -0.036, highest 2% from about 0.37 on). The list shows a part of the results.

What follows are sequences tested against T1, Yer064c (UniProt P40041) (assay: PBM E-score (8-mer binding enrichment) (E-score (-0.5 to 0.5)); higher = stronger / more preferred TF binding; most listed sequences are background and not binding sites). Settings: protein concentration: 200 nM; construct: GST-full length.
T1 sequence: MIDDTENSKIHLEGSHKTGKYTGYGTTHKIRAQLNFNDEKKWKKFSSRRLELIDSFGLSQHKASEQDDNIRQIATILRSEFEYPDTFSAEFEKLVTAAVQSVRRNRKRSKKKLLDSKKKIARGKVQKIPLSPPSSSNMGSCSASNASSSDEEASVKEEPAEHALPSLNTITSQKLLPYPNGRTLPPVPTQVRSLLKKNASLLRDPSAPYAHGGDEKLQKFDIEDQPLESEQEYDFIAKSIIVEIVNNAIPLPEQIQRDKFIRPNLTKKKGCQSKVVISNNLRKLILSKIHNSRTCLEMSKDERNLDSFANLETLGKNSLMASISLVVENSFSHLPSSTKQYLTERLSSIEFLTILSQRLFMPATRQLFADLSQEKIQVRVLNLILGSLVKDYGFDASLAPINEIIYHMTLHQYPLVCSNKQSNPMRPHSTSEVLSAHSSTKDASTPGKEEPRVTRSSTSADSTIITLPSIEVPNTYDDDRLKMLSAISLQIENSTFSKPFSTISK
Method in brief: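 Detection of bound protein used fluorescent anti-GST, with scans normalised by masliner. The proteins were GST-tagged yeast transcription factors applied at about 100-200 nM to universal all-10-mer Agilent arrays made double-stranded by primer extension. Each ungapped eight-base word, pooled with its reverse complement, was scored with an E-score from the Universal PBM Analysis Suite.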

Row | Sequence | PBM E-score
1 | AAATATAC | 0.0617
2 | GTTCTCCA | -0.256
3 | AACTAGTT | -0.0694
4 | CGTATGGA | -0.0542
5 | CGACCAAA | -0.0829
6 | CAGACGAC | 0.137
7 | ACGTTAGA | 0.111
8 | CAAACGCC | -0.145
9 | AAGTCACA | 0.414
10 | GGTTCCCA | -0.0406
11 | GGAATGAC | 0.182
12 | CGCCGTTA | 0.173
13 | ATAACCAC | 0.0837
14 | GTCACGAC | 0.324
15 | CCCAACAG | -0.0928
16 | ATTGGAGC | 0.046
17 | AAATCAGT | 0.178
18 | AGTGATAC | 0.0829
19 | ATGTCTAA | 0.262
20 | GAACAGGA | -0.165
21 | CCTCCACA | -0.119
22 | CAAGTTGC | -0.184

Row | Sequence | PBM E-score
23 | GTGCCTTA | -0.0701
24 | GTTTAACA | 0.0707
25 | AGTACCTC | -0.00168
26 | GGCTTCCC | -0.291
27 | AGGTCGAT | 0.0253
28 | GATACGAC | 0.192
29 | GATCTCCA | -0.133
30 | ACTCTTAG | 0.198
31 | GAACCAAC | -0.0543
32 | GATATCGA | -0.0649
33 | ATCCGCCA | 0.151
34 | ACGTTCAT | -0.206
35 | GGGCCAGA | -0.241
36 | GACACCCA | 0.093
37 | AAGAATCT | 0.0452
38 | AAACCGTC | -0.0577
39 | ACGTAAAC | -0.208
40 | TACTTCGA | 0.147
41 | AATGCTAT | 0.00613
42 | GGGCTAGA | -0.15
43 | ACTCCTCC | 0.0562
44 | AGGCATGA | 0.0451

Row | Sequence | PBM E-score
45 | TCGAAAAA | 0.0947
46 | AAGCCTCA | -0.263
47 | TCTCCTAA | 0.0806
48 | AACAGCGC | -0.0819
49 | ACAACTAG | -0.0926
50 | GGTTCCAA | -0.00231
51 | CCGAGCGA | -0.0564
52 | CAAATGCC | -0.188
53 | AATAGGCT | -0.0339
54 | AAGACCCG | -0.0897
55 | GGGATAAC | -0.184
56 | CTAATTGC | 0.115
57 | CAGCGCCC | -0.151
58 | GTCGGCAA | 0.0157
59 | CCTGTTGC | -0.287
60 | GGGTCTCA | -0.137
61 | AGCTGCAA | -0.175
62 | ACCGACTA | 0.184
63 | GGGTGGAC | 0.0463
64 | GACCCCGA | -0.0887
65 | CGATTTGA | 0.23
66 | GAACTCCC | -0.00449

Row | Sequence | PBM E-score
67 | ACTTTATC | 0.232
68 | GGAGCTTA | -0.108
69 | GGGCCTCA | -0.346
70 | AATAGGTC | -0.129
71 | ACCGATTA | -0.071
72 | CTGATTGA | 0.305
73 | AATAGCGA | 0.0521
74 | AAACCACT | -0.0202
75 | GCCCGGAC | -0.22
76 | CCTCCGAA | -0.284
77 | GAACAGGC | -0.161
78 | AATACCTG | -0.293
79 | ACTCGCTA | 0.213
80 | GCACTTCC | -0.318
81 | AATGAGGC | -0.245
82 | GCAATCAC | 0.287
83 | ATTCCCAC | 0.0834
84 | AAAGGCGG | -0.124
85 | TAGGCAAA | -0.0921
86 | ACATTTAA | 0.114
87 | ACGATATG | 0.0671
88 | GCCCGCAC | -0.231

Row | Sequence | PBM E-score
89 | ATGTACGC | -0.193
90 | CTGACTCC | 0.46
91 | GCACGGTA | 0.0169
92 | ACGAGAAC | 0.104
93 | CTCTTAAC | 0.0719
94 | ACCTGATC | -0.0706
95 | AACGCTTG | -0.106
96 | TATCAAGA | 0.164
97 | ACAGAACC | -0.146
98 | TGTATAAA | -0.0876
99 | AAACCCTC | -0.203
100 | CAGCAACC | -0.0227
101 | TACTATAA | 0.0586
102 | CGAGAGCG | -0.141
103 | ACTCGGAG | 0.215
104 | CAGGCGCG | -0.114
105 | CCGCTCCG | -0.0895
106 | AACGATGA | 0.231
107 | GTTTACGA | 0.128
108 | ACCCATAT | 0.216
109 | AGTTCCTA | 0.091
